74 sequences from publication PMC5892938 can be followed below.

The other results are listed elsewhere or left out. At the low end of the ranking the order means little.

The target in this experiment is GST-SBP-SLBP (stem-loop binding protein) (UniProt Q14493). Briefly: targeted RNA Bind-n-Seq.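 Further: DESeq read counts versus GST-SBP nonspecific binding control pulldown.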 To be noted: RBNS binding buffer: 25 mM Tris pH 7.5, 150 mM KCl, 3 mM MgCl2, 0.1% Tween, 0.5 mg/mL BSA, 1 mM DTT; 27 nM protein, 750 pM RNA pool; temperature not stated; high values mean tight binding.
As for “GGUCACGUCUCAAUCAACUCAUCCCCAGGAGUUUCCUCCUGCUAUUUCAACAGCUCGCAGUCAAG”, the binding signal (log2 fold change) was 0.18. In the case of “GGUCACGUCUCAAUCAACUCUUCUUCCAGGGAAACCCCUGGCAAAUUCAACAGCUCGCAGUCAAG”, the binding signal (log2 fold change) is -0.213.

With “GGUCACGUCUCAAUCAACUCAAUUCCCAGGGAAAUCCCUGGUUAUCUCAACAGCUCGCAGUCAAG”, the binding signal (log2 fold change) was -0.164. Under “GGUCACGUCUCAAUCAACUCAAUCGAGGGGGGGAAAACCCCUUUACCCUCAAACUCAACAGCUCGCAGUCAAG” stands 0.147; under “GGUCACGUCUCAAUCAACUCAUUCUCAGGAGUUUACUCCUGUUUAUUCAACAGCUCGCAGUCAAG”, -0.0435. In the case of “GGUCACGUCUCAAUCAACUCUUCUCCCAGGGAAACCCCUGGCAAUGUCAACAGCUCGCAGUCAAG” it was -0.028; in that of “GGUCACGUCUCAAUCAACUCAUUCCCAGGAGUUUUCUCCUGCUAAUUCAACAGCUCGCAGUCAAG”, -0.0684. As to “GGUCACGUCUCAAUCAACUCUAUCCCAGGAGUUUACUCCUGCAUUCUCAACAGCUCGCAGUCAAG”, the binding signal (log2 fold change) amounted to 0.0896. In the case of “GGUCACGUCUCAAUCAACUCUUUCCCCAGGGAAACCCCUGGUAUUCUCAACAGCUCGCAGUCAAG” it was 0.0621; in that of “GGUCACGUCUCAAUCAACUCGCAAGAGGGGGGGAAAACCCCUUUACCCUCCAUUUCAACAGCUCGCAGUCAAG”, -0.189. For the sequence “GGUCACGUCUCAAUCAACUCUCUAGAGGGGGGGAAAACCCCUUUGCCCUCGUUAUCAACAGCUCGCAGUCAAG”, the binding signal (log2 fold change) was -0.416. Consider “GGUCACGUCUCAAUCAACUCAAUCUCAGGAGUUUCCUCCUGCAUUCUCAACAGCUCGCAGUCAAG”, for which the binding signal (log2 fold change) was 0.203. Under “GGUCACGUCUCAAUCAACUCAACUUCCAGGGAAAGCCCUGGUUAUUUCAACAGCUCGCAGUCAAG” stands 0.0539; under “GGUCACGUCUCAAUCAACUCAUUCCCCAGGGAAAGCCCUGGCUAUUUCAACAGCUCGCAGUCAAG”, 0.0115; under “GGUCACGUCUCAAUCAACUCAUCUCCCAGGGAAACCCCUGGCAAACUCAACAGCUCGCAGUCAAG”, -0.225.

With “GGUCACGUCUCAAUCAACUCAUCCCCCAGGGAAAUCCCUGGUAUACUCAACAGCUCGCAGUCAAG”, the binding signal (log2 fold change) worked out at 0.0698. Regarding “GGUCACGUCUCAAUCAACUCUAUUCCAGGAGUUUUCUCCUGCUAUUUCAACAGCUCGCAGUCAAG”, the binding signal (log2 fold change) is -0.242.

Consider “GGUCACGUCUCAAUCAACUCAAUUCCAGGAGUUUGCUCCUGCUUUUUCAACAGCUCGCAGUCAAG”, for which the binding signal (log2 fold change) was 0.00777. Under “GGUCACGUCUCAAUCAACUCUAGUCCCAGGGAAACCCCUGGCAAUCUCAACAGCUCGCAGUCAAG” stands -0.177; under “GGUCACGUCUCAAUCAACUCUUUUUCCAGGGAAAACCCUGGCUAACUCAACAGCUCGCAGUCAAG”, -0.0647; under “GGUCACGUCUCAAUCAACUCCGCAGAGGGGGGGAAAACCCCUUUACCCUCCAUUUCAACAGCUCGCAGUCAAG”, -0.0209. Under “GGUCACGUCUCAAUCAACUCAAUUUCAGGAGUUUUCUCCUGCAUGUUCAACAGCUCGCAGUCAAG” stands 0.0789. Under “GGUCACGUCUCAAUCAACUCUAAAGAGGGGGGGAAAACCCCUUUACCCUCAAAUUCAACAGCUCGCAGUCAAG” stands 0.00196; under “GGUCACGUCUCAAUCAACUCUUCUUCAGGAGUUUACUCCUGCUUACUCAACAGCUCGCAGUCAAG”, -0.00474; under “GGUCACGUCUCAAUCAACUCCCUAGAGGGGGGGAAAACCCCUUUGCCCUCAUCUUCAACAGCUCGCAGUCAAG”, -0.427. As for “GGUCACGUCUCAAUCAACUCAUUUUCCAGGGAAACCCCUGGUUUAUUCAACAGCUCGCAGUCAAG”, the binding signal (log2 fold change) is -0.102.

“GGUCACGUCUCAAUCAACUCAUCUUCAGGAGUUUCCUCCUGUUUACUCAACAGCUCGCAGUCAAG”: the binding signal (log2 fold change) was 0.025. As for “GGUCACGUCUCAAUCAACUCCUUAGAGGGGGGGAAAACCCCUUUACCCUCAAUAUCAACAGCUCGCAGUCAAG”, the binding signal (log2 fold change) was -0.212. Under “GGUCACGUCUCAAUCAACUCACAAGAGGGGGGGAAAACCCCUUUACCCUCACUAUCAACAGCUCGCAGUCAAG” stands 0.144; under “GGUCACGUCUCAAUCAACUCAAUCCCAGGAGUUUACUCCUGCAAAGUCAACAGCUCGCAGUCAAG”, 0.0328; under “GGUCACGUCUCAAUCAACUCCUAAGAGGGGGGGAAAACCCCUUUGCCCUCCAAUUCAACAGCUCGCAGUCAAG”, 0.279.

Consider “GGUCACGUCUCAAUCAACUCAUCUCCAGGAGUUUGCUCCUGCAUUUUCAACAGCUCGCAGUCAAG”, for which the binding signal (log2 fold change) was determined as 0.149.

On to “GGUCACGUCUCAAUCAACUCUUUUCCCAGGGAAACCCCUGGUAAUUUCAACAGCUCGCAGUCAAG”, for which the binding signal (log2 fold change) is -0.0857. As to “GGUCACGUCUCAAUCAACUCAACUCCAGGAGUUUGCUCCUGCUUUUUCAACAGCUCGCAGUCAAG”, the binding signal (log2 fold change) is -0.0542. Consider “GGUCACGUCUCAAUCAACUCUUCCUCAGGAGUUUCCUCCUGCAUACUCAACAGCUCGCAGUCAAG”, for which the binding signal (log2 fold change) amounted to 0.271. For the sequence “GGUCACGUCUCAAUCAACUCUUCCCCAGGAGUUUUCUCCUGUUAUUUCAACAGCUCGCAGUCAAG”, the binding signal (log2 fold change) worked out at 0.0302. Under “GGUCACGUCUCAAUCAACUCAUCUCCCAGGGAAAUCCCUGGUUAUCUCAACAGCUCGCAGUCAAG” stands 0.151. Under “GGUCACGUCUCAAUCAACUCAUCCUCAGGAGUUUACUCCUGUAUACUCAACAGCUCGCAGUCAAG” stands -0.0396; under “GGUCACGUCUCAAUCAACUCAAUCUCAGGAGUUUACUCCUGUAAAUUCAACAGCUCGCAGUCAAG”, 0.028.

Turning to “GGUCACGUCUCAAUCAACUCUCUCGAGGGGGGGAAAACCCCUUUACCCUCACUUUCAACAGCUCGCAGUCAAG”, the binding signal (log2 fold change) is 0.0987. Regarding “GGUCACGUCUCAAUCAACUCAAACGAGGGGGGGAAAACCCCUUUACCCUCAAUUUCAACAGCUCGCAGUCAAG”, the binding signal (log2 fold change) is -0.455. Turning to “GGUCACGUCUCAAUCAACUCAUCCCCAGGAGUUUUCUCCUGUUAACUCAACAGCUCGCAGUCAAG”, the binding signal (log2 fold change) was determined as 0.125. “GGUCACGUCUCAAUCAACUCAGUCUCCAGGGAAACCCCUGGCUAAUUCAACAGCUCGCAGUCAAG”: the binding signal (log2 fold change) is -0.224. In the case of “GGUCACGUCUCAAUCAACUCAAGUCCAGGAGUUUACUCCUGCUAAUUCAACAGCUCGCAGUCAAG” it was 0.0169. Regarding “GGUCACGUCUCAAUCAACUCAUCCUCAGGAGUUUUCUCCUGUAAACUCAACAGCUCGCAGUCAAG”, the binding signal (log2 fold change) is 0.0461. Take “GGUCACGUCUCAAUCAACUCUUUCUCCAGGGAAACCCCUGGCAUUCUCAACAGCUCGCAGUCAAG”: the binding signal (log2 fold change) amounted to 0.0446. For the sequence “GGUCACGUCUCAAUCAACUCUAUUUCCAGGGAAAUCCCUGGCUUUUUCAACAGCUCGCAGUCAAG”, the binding signal (log2 fold change) is -0.149. As to “GGUCACGUCUCAAUCAACUCAAUCUCAGGAGUUUACUCCUGCUUACUCAACAGCUCGCAGUCAAG”, the binding signal (log2 fold change) turned out to be 0.163. Under “GGUCACGUCUCAAUCAACUCAAGUCCAGGAGUUUACUCCUGCUUAUUCAACAGCUCGCAGUCAAG” stands 0.173; under “GGUCACGUCUCAAUCAACUCAAUCUCAGGAGUUUACUCCUGCAUUUUCAACAGCUCGCAGUCAAG”, 0.136; under “GGUCACGUCUCAAUCAACUCAUCCUCAGGAGUUUUCUCCUGCAUAGUCAACAGCUCGCAGUCAAG”, 0.195. “GGUCACGUCUCAAUCAACUCCUUCGAGGGGGGGAAAACCCCUUUACCCUCAAUAUCAACAGCUCGCAGUCAAG”: the binding signal (log2 fold change) was -0.442. Under “GGUCACGUCUCAAUCAACUCUUUCUCCAGGGAAAACCCUGGUAAACUCAACAGCUCGCAGUCAAG” stands 0.033; under “GGUCACGUCUCAAUCAACUCAGUCCCAGGAGUUUUCUCCUGCUAAUUCAACAGCUCGCAGUCAAG”, 0.335. Under “GGUCACGUCUCAAUCAACUCUUCUCCCAGGGAAAUCCCUGGUUAUCUCAACAGCUCGCAGUCAAG” stands -0.202; under “GGUCACGUCUCAAUCAACUCACAAGAGGGGGGGAAAACCCCUUUGCCCUCAACCUCAACAGCUCGCAGUCAAG”, -0.199; under “GGUCACGUCUCAAUCAACUCUUUCGAGGGGGGGAAAACCCCUUUGCCCUCACAUUCAACAGCUCGCAGUCAAG”, 0.257. In the case of “GGUCACGUCUCAAUCAACUCAUCGUCCAGGGAAAACCCUGGUUAAUUCAACAGCUCGCAGUCAAG” it was 0.168; in that of “GGUCACGUCUCAAUCAACUCAAUCUCCAGGGAAAGCCCUGGCAAUUUCAACAGCUCGCAGUCAAG”, -0.238; in that of “GGUCACGUCUCAAUCAACUCUAUCCCAGGAGUUUCCUCCUGCUAUCUCAACAGCUCGCAGUCAAG”, -0.00324. For the sequence “GGUCACGUCUCAAUCAACUCUUACGAGGGGGGGAAAACCCCUUUGCCCUCAACAUCAACAGCUCGCAGUCAAG”, the binding signal (log2 fold change) worked out at 0.326. In the case of “GGUCACGUCUCAAUCAACUCAUCGCCCAGGGAAAACCCUGGUAUUCUCAACAGCUCGCAGUCAAG” it was 0.0168; in that of “GGUCACGUCUCAAUCAACUCUUCCGCAGGAGUUUUCUCCUGGUAAUUCAACAGCUCGCAGUCAAG”, 0.0966; in that of “GGUCACGUCUCAAUCAACUCAUCGUCAGGAGUUUACUCCUGUUUACUCAACAGCUCGCAGUCAAG”, -0.0696. Under “GGUCACGUCUCAAUCAACUCUUCUCCCAGGGAAAACCCUGGCUAAUUCAACAGCUCGCAGUCAAG” stands 0.168; under “GGUCACGUCUCAAUCAACUCAACUCCAGGAGUUUCCUCCUGCUUUUUCAACAGCUCGCAGUCAAG”, 0.0819.

On to “GGUCACGUCUCAAUCAACUCUAUUUCCAGGGAAAACCCUGGCUUACUCAACAGCUCGCAGUCAAG”, for which the binding signal (log2 fold change) is -0.0304.

Consider “GGUCACGUCUCAAUCAACUCUACGCCAGGAGUUUUCUCCUGUAUUCUCAACAGCUCGCAGUCAAG”, for which the binding signal (log2 fold change) is -0.253. In the case of “GGUCACGUCUCAAUCAACUCAUCUCCCAGGGAAAACCCUGGCAAUUUCAACAGCUCGCAGUCAAG” it was 0.243; in that of “GGUCACGUCUCAAUCAACUCAUUUCCAGGAGUUUACUCCUGCUUUCUCAACAGCUCGCAGUCAAG”, 0.235; in that of “GGUCACGUCUCAAUCAACUCAAUUUCAGGAGUUUUCUCCUGUAUAUUCAACAGCUCGCAGUCAAG”, -0.0269. Under “GGUCACGUCUCAAUCAACUCUUCUUCCAGGGAAAUCCCUGGUUAAUUCAACAGCUCGCAGUCAAG” stands 0.0744. On to “GGUCACGUCUCAAUCAACUCAACAGAGGGGGGGAAAACCCCUUUACCCUCAAACUCAACAGCUCGCAGUCAAG”, for which the binding signal (log2 fold change) is -0.181. Consider “GGUCACGUCUCAAUCAACUCCACGGAGGGGGGGAAAACCCCUUUACCCUCAACAUCAACAGCUCGCAGUCAAG”, for which the binding signal (log2 fold change) turned out to be 0.168.
